Reference: PubChem BioAssay AID1963576 (National Center for Advancing Translational Sciences (NCATS), 2024)
The whole screen tested about 46,000 compounds, of which about 60 (0.1%) were called active. Roughly 3% stayed inconclusive and do not appear here. Calls follow the shape of the dose curve; as a rule, active = well fitted inhibition curve with a large enough effect; inconclusive = small, poorly fitted or top-dose-only effect; inactive = no such curve, though single readings can be large or run the other way. The list shows a part of the results.

Assay: Primary qHTS assay for Inhibitors of ovarian cancer metastasis using an organotypic tumor microenvironment (TME) model. Also: nearly all actives have a fitted effect of over 65% in size.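 As to activity change, negative = inhibition: plate controls were DMSO wells for no effect and tomatine positive control wells for full effect.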
Conditions: SKOV3ip1-GFP adhesion/invasion on 3D omental model, fluorescence; series mostly up to 45.8 µM; activity change, negative = inhibition: at the top concentration
Procedure, shortened: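 Adhesion/invasion was scored as fixed GFP-labeled SKOV3ip1 cell counts (488/509 nm), normalized to DMSO and tomatine controls. Cancer cells in serum-free medium, with four compound doses (0.36-46 umol/L), sat 2 hr at RT then 16 hr at 37 C on a 48 hr fibroblast/mesothelial/ECM culture.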

Activity change, negative = inhibition, inactive:
CCC(C)NC(=O)Cn1c(=O)n(-c2ccc(Cl)c(Cl)c2)c(=O)c2c(C)c(C(=O)N(CC)CC)sc21 (centres undefined) 5.26%
NCC1CCC(C(=O)O)CC1 (centres undefined) 1.31%
CC1(C)CCC(CN2CCN(c3ccc(C(=O)NS(=O)(=O)c4ccc(NCC5CCOCC5)c([N+](=O)[O-])c4)c(Oc4cnc5[nH]ccc5c4)c3)CC2)=C(c2ccc(Cl)cc2)C1 22.1%
CCCCC(=O)Nc1cc2nn(-c3ccc(OCC)cc3)nc2cc1C 3.5%
Cc1cccc(C)c1Nc1c(-c2cccs2)nc2ncccn12 -5.4%
Cc1cccc(OCCSc2nc3ccc(NC(=O)c4cccs4)cc3s2)c1 1.16%
CS(=O)(=O)N1CCC(n2c(C(F)(F)F)nc3cccnc32)CC1 5.55%
Cn1c(=O)c2c(SCC(=O)NCC3CCCO3)nc(-c3cccc(F)c3)nc2n(C)c1=O (centres undefined) 7.25%
Cc1ccc(OCC(=O)Nc2cc(-c3nc4ccccc4[nH]3)ccc2C)c(C)c1 -16.4%
CC(=O)c1ccc(NC(=O)c2ccc(NC(=O)CCS(=O)(=O)c3cccs3)cc2)cc1 2.51%
Cc1cccc(Cn2cc(S(=O)(=O)c3ccc(Cl)cc3)c(=O)c3cc4c(cc32)OCO4)c1 0.0792%
COc1cccc(NC(=O)C(=O)NCCc2csc(-c3ccc(C)cc3)n2)c1 -13%
CCCn1cc(S(=O)(=O)c2ccc(C)cc2)c(=O)c2cc(OC)c(OC)cc21 2.77%
COc1ccc(C2=C(C)C(N3CCC(C(=O)Nc4cc(C)ccc4C)CC3)=NS2(=O)=O)cc1 -3.5%
CCN(C(=O)CCNC(=O)Cn1cnc2ccccc2c1=O)c1cccc(Cl)c1 6.27%
CCOC(=O)CSc1nc(-c2ccccc2)cc(C(F)(F)F)c1C#N 2.51%
Cc1ccc(NC(=O)c2c(C(=O)Nc3ccccc3)sc3nc(C)cc(=O)n23)c(C)c1 -8.72%
CSc1ncc(C(=O)NCc2ccc(Cl)cc2)c(C(F)(F)F)n1 1.62%
CCn1c(CN2CCCCC2)nc2cc(NC(=O)c3ccccc3[N+](=O)[O-])ccc21 -10.4%
COc1cccc(N2CCN(C(=O)c3cc4c(=O)n(Cc5cccs5)ccc4nc3C)CC2)c1 19.5%
CCOC(=O)c1ccc(NC(=O)c2csc3c2CCCC3)cc1 0.651%
O=C(Nc1cccc2cccnc12)c1cccc2ccccc12 -12.7%
CCOc1ccc(C(=O)Nc2ccc(C(=O)OCc3cc(=O)n4ccsc4n3)cc2)cc1 -0.536%
COC(=O)c1ccc(Cl)cc1NC(=O)NCc1c(-n2cccc2)sc2c1CCCC2 14%
Cc1cccc(NC(=O)Cn2cnc(S(=O)(=O)N3CCCC3)c2)c1C -12.3%
COc1ccccc1CCNC(=O)Cc1c(C)c2cc3c(C(C)(C)C)coc3c(C)c2oc1=O -3.8%
CCCc1cc(=O)[nH]c(SCc2nc(-c3ccc(C)cc3)no2)n1 -3.07%
COc1ccc(CCNC(=O)c2ccc(-n3c(C)cc4c3CCCC4)cc2)cc1OC -29%
COc1ccccc1NC(=O)CN1C(=O)CC(c2ccc(C)c(C)c2)=Nc2ccccc21 -12.1%
Cc1cccc(Cn2c(SCc3ccc(C(=O)N4CCC(C)CC4)cc3)nc3ccncc32)c1 -1.35%
CCCSc1ncc(Cl)c(C(=O)Nc2c(C(=O)Nc3ccccc3)oc3ccccc23)n1 -12.1%
O=C(OCC1CCCO1)c1ccc2c(c1)N(Cc1cccc(Cl)c1)C(=O)c1ccccc1S2(=O)=O (centres undefined) -7.01%
CN1CCSc2ccc(C(=O)NCc3ccccc3F)cc21 -2.03%
COC(=O)c1c(C)sc(-c2c(-c3ccc4c(c3)OCCO4)[nH]c3[nH]c(=O)[nH]c(=O)c23)c1O 4.3%
O=S(=O)(c1ccc(Br)cc1)c1nnn2c1nc(Nc1cccc(C(F)(F)F)c1)c1sccc12 4.3%
CCOc1ccc(-c2cc3nc(C4CCN(C(=O)OC(C)(C)C)CC4)c(C(=O)Nc4ccc(C)cc4Cl)cn3n2)cc1 -9.26%
Cc1cc(C)c2c(n1)nn1c(C)c(CCC(=O)NCc3ccccc3Cl)c(C)nc21 -8.33%
CCN(c1ccccc1)S(=O)(=O)c1ccc(NC(=O)c2cc(=O)c3cc(C)ccc3o2)cc1 -8.67%
COc1ccc(Cl)cc1NC(=O)CSc1c2c(nc3ccccc13)CCC2 -6.16%
COc1cc(C(=O)Nc2nc3c(s2)Cc2c(Br)ccc(OC)c2-3)cc(OC)c1OC -0.194%
O=C(Nc1nnc(N2CCCCCC2)s1)Nc1ccccc1C(F)(F)F 6.15%
CCC(Sc1nc2ccccc2c2nc(CCc3c(C)n[nH]c3C)nn12)C(=O)Nc1ccc(OC)cc1 (centres undefined) 1.64%
O=S(=O)(Nc1cccc(-c2ccc(N3CCCC3)nn2)c1)c1ccc(F)cc1F 10.2%
O=S(=O)(c1ccc(F)cc1)N1CCC(n2c(C(F)(F)F)nc3cccnc32)CC1 -1.52%
COc1ccc(CNC(=O)C2CCN(c3nnc(-n4cccc4CNc4ccc(C)cc4)s3)CC2)c(OC)c1 1.9%
COc1ccc(-c2cn3nc(N4CCCC(C(=O)NCc5ccccc5C)C4)sc3n2)cc1 (centres undefined) 1.11%
CCOC(=O)c1ccccc1NC(=O)c1sc2ccccc2c1Cl 8.38%
COc1ccc(Cn2ccnc2SCC(=O)Nc2cc(C(F)(F)F)ccc2Cl)cc1 11.2%
COc1ccc(NC(=O)CSc2c3c(nc4ccccc24)CCC3)c(OC)c1 -4.61%
COc1cccc(NC(=O)CSCn2nnc3c(=O)[nH]c(Cc4ccc(F)cc4)nc32)c1 3.51%
CN(Cc1ccc(F)cc1)S(=O)(=O)c1nnc(NC(=O)c2ccc(F)cc2)s1 18.3%
Cc1cc(Cl)ccc1Nc1ncnc2onc(C)c12 3.17%
Cc1ccc(Cl)cc1N1CCN(C(=O)c2cc(S(=O)(=O)N3CCCCCC3)cn2C)CC1 32%
O=C(CN(CCc1ccccc1)S(=O)(=O)c1ccccc1)NCc1ccc(Cl)cc1 -7.28%
COc1ccc(NC(=O)C2CCCN(S(=O)(=O)c3ccc4c(c3)CCCN4C(C)=O)C2)cc1 (centres undefined) -3.04%
O=C(CSc1nc2c([nH]c3ccccc32)c(=O)n1-c1ccccc1F)Nc1ccccc1C(F)(F)F -0.638%
COC(=O)c1ccc2c(c1)N(CC(=O)Nc1cccc(C(F)(F)F)c1)C(=O)c1ccccc1S2 7.42%
CCOc1ccc(CNC(=O)c2[nH]c3ccccc3c2Sc2ccc(C)cc2)cc1 -6.56%
O=C(Cn1ccn(-c2cccc(Cl)c2)c(=O)c1=O)c1ccc(F)cc1 -3.2%
O=C(NCCCN1CCN(c2ccc(F)cc2)CC1)c1sc2ncccc2c1-n1cccc1 4.36%
CC(C)c1ccccc1NC(=O)CN(c1ccccc1)S(=O)(=O)N(C)C 17.5%
Cc1ccc2c(c1)CC(C)N2S(=O)(=O)c1nnc(NC(=O)c2ccccc2F)s1 (centres undefined) -19.5%
Cc1ccc(C(=O)N2CCC(N3CCN(Cc4ccc(F)cc4)C(=O)C3=O)CC2)cc1 0.259%
O=C1C(c2ccc(F)cc2)N(Cc2ccccc2Cl)C(=O)CN1C1CCCCC1 (centres undefined) 1.18%
Cc1cc(C)cc(NC(=O)CCS(=O)(=O)c2ccc3nc(C)sc3c2)c1 -7.09%
CCOc1ccc(-c2nn(-c3ccccc3)cc2C2NC(=O)NC(C)=C2C(=O)OC(C)C)cc1C (centres undefined) -8.72%
COc1ccc(OC)c(S(=O)(=O)N2Cc3ccccc3CC2C(=O)Nc2ccc(Cl)cc2)c1 (centres undefined) -0.928%
Cc1ccc(N(C)C(=O)Cn2cc(S(=O)(=O)N3CCCC3)c(S(=O)(=O)N3CCCC3)c2)cc1 1.21%
O=C(Nc1ccc(F)cc1)C1CCCN(c2ncnc3c2nc2n3CCCCC2)C1 (centres undefined) -6.77%
Cc1cccc(CNC(=O)Cc2ccc(NC(=O)N3CCCCc4ccccc43)cc2)c1 8.21%
CCN(CC)CCn1c2c(c(SCC(=O)Nc3cccc(C(F)(F)F)c3)nc1=O)CCC2 -7.47%
COc1cccc(CNC(=O)c2oc3ccc4c(c3c2C)C(=O)CC(C)(C)O4)c1OC 0.845%
Cc1c(C(=O)Nc2ccc(F)c(F)c2)oc2ccc(S(=O)(=O)N(C)C3CCCCC3)cc12 30.1%
CCOC(=O)c1ccc(NC(=O)C(C)N(c2ccc(OCC)cc2)S(C)(=O)=O)cc1 (centres undefined) 44.5%
COc1ccc(CNC(=O)c2cc3c(=O)n4cccc(C)c4nc3s2)cc1 -4.35%

outcome, inactive:
CCc1nn(Cc2cccc(F)c2)c(=O)c2cc3cc(C)ccc3n12
Cc1nn(-c2ccccc2)c(OC(=O)c2ccc(F)cc2)c1S(=O)(=O)c1ccccc1
Cc1ccc(CNC(=O)Cn2ncc3c([nH]c4ccc(C)cc43)c2=O)cc1
COc1ccc(N2CCN(S(=O)(=O)CCNC(=O)COc3cccc(OC)c3)CC2)cc1
Cc1cccc(NC(=O)c2c(NC(=O)c3ccccc3)sc3c2CCCC3)c1
Cc1ccc(NC(=O)NCCOCCn2c(=O)oc3ccccc32)cc1F
O=C(c1ccc2c(c1)N(Cc1ccc(F)cc1)C(=O)c1ccccc1S2=O)N1CCOCC1 (centres undefined)
Cc1ccc(S(=O)(=O)c2nc(-c3cccc(C)c3)oc2N2CCCCC2)cc1
Cc1ccccc1-n1c(=O)c2c3c(sc2n2cnnc12)CCCC3
CCN(CC)C(=O)Cn1c(=O)cc(C)c2c(C)nn(C)c21
COc1cccc(Nc2sc(C(=O)c3ccc(F)cc3)c(N)c2C(=O)NCc2ccc(C)cc2)c1
COc1ccc(N2CCN(C(=O)CN(C)S(=O)(=O)c3cccs3)CC2)cc1
O=C(Nc1ccccc1Cl)C1CCN(c2nc3ccccc3[nH]2)CC1
COc1cc(CNc2ccc3c(c2)ncn3C(C)C)cc(OC)c1OC
Cc1ccc(NC(=O)CCS(=O)(=O)c2ccc(Br)cc2)c(C)c1
Cc1ccc(-n2nc(CO)c(C(=O)NCCCCc3ccccc3)n2)cc1
CCOC(=O)c1cc(-c2ccccc2)n(CCC(=O)Nc2ccc(C)cc2Cl)c1C
COc1ccc(CCNC(=O)CCCCn2c(=O)c3ccccc3n(Cc3ccc(Cl)cc3)c2=O)cc1OC
O=C(Nc1cc2ccc(O)cc2oc1=O)c1ccc(F)cc1
